Assay results: PMC4336329 (PLoS ONE, 2015)
About 14,000 (4.5%) of roughly 310,000 compounds showed an effect of 50% or more. The effect is printed as a negative number. Some of the results follow.

Each compound was assayed against human ether-à-go-go-related gene (hERG) potassium channel (human, UniProt Q12809) (assay: primary screen, population patch clamp on CHO cells stably expressing hERG).
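Note: peak tail current of the secondary pulse compared with the same well before compound.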

Sequence of human ether-à-go-go-related gene (hERG) potassium channel (Q12809 whole entry, looked up): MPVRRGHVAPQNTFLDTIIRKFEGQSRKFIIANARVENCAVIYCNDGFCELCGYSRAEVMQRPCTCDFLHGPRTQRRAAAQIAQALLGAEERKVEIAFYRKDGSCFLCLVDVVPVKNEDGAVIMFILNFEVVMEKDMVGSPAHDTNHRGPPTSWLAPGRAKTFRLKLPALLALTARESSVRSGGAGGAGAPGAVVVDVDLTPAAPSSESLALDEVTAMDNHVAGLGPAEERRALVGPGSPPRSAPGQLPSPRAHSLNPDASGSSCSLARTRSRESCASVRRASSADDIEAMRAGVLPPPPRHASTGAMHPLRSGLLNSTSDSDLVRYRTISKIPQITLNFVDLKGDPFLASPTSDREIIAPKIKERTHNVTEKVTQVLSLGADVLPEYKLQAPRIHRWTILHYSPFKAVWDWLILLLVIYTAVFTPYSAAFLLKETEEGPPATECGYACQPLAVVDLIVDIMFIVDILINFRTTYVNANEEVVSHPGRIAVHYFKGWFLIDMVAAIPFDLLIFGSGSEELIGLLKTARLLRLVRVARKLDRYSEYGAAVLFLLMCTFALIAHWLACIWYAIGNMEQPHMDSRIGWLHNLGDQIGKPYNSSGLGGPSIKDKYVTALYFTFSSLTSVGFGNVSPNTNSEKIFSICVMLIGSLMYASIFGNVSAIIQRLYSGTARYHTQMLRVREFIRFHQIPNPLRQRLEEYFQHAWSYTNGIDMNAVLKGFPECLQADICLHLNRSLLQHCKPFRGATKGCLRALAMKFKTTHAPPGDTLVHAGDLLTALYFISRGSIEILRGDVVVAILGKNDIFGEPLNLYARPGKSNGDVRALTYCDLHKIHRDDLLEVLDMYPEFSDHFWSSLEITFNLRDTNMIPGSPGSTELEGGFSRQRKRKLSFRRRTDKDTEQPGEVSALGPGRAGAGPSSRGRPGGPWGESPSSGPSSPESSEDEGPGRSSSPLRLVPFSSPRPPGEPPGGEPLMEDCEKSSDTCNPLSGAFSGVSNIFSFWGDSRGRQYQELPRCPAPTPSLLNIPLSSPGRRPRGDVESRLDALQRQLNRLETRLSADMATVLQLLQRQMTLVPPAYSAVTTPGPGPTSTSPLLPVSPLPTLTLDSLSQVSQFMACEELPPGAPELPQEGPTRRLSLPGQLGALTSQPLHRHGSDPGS

Structure (SMILES) | hERG current change (%, negative = inhibition) at 10uM [%]
O=C(Nc1ccccc1C(=O)O)c1cccc(NC(=O)c2ccccc2Br)c1 | 9.46
COc1cc(NS(=O)(=O)c2ccc(NC(=O)/C=C/C(=O)O)cc2)nc(OC)n1 | 6.18
COc1ccc(N2CCN(C(CNS(=O)(=O)c3ccccc3)c3ccccc3)CC2)cc1 (stereo not shown) | -22.5
Cc1ccc(OCC(=O)N/N=C/c2cccn2C)cc1 | -0.613
Cc1nn(-c2ccccc2)c(C)c1CN(C)C(=O)c1ccc(S(=O)(=O)NCc2ccco2)cc1 | -21.2
O=C(CCC(=O)N1CCCC1)Nc1nnc(C(F)(F)F)s1 | 2.85
COC(=O)c1ccc(NC(=O)CSc2nnc(COc3ccc4c(c3)CCCC4)o2)cc1 | 4.81
CC1C(=O)N2CCCc3cc(NC(=O)c4ccccc4F)cc1c32 (stereo not shown) | -5.53
COc1ccc2c(CC(=O)NCCN3C(=O)S/C(=C\c4cccnc4)C3=O)coc2c1 | -9.62
Cc1c(C(=O)NN)nc2ccccn12 | 6.94
O=C1NC(=O)N(CCC2=CCCCC2)C(=O)/C1=C\c1cccs1 | 1.15
CC(C)OC(=O)CSc1nnc(-c2cnccn2)n1-c1ccccc1 | 8.56
COc1ccc(N=N/C(C(C)=O)=C(/C)O)cc1 | -24.5
CC(C)[C@H](NC(=O)[C@@H]1Cc2ccccc2CN1)C(=O)Nc1ccc2c(c1)OCO2 | -25.8
CN(CC(=O)Nc1ccc(N2CCOCC2)cc1)C(=O)C1CCCC1 | 23.1
CCCOc1cccc(-c2cc(C(=O)NNC(=S)NCC)c3ccccc3n2)c1 | 7.6
Cc1cc(C)n2nc(C(=O)N/N=C/c3cccs3)nc2n1 | 14.1
CCC1CCCCN1C(=O)Cn1c(C(=O)OC)cc2sc(Cl)cc21 (stereo not shown) | 12
Cc1ccc(OCCOCCN2CCN(C)CC2)c([N+](=O)[O-])c1 | 5.81
Cc1cc(NC(=O)CSc2nc3c([nH]c4ccccc43)c(=O)n2-c2ccccc2F)no1 | 10.9
Cl.O=C1CN=C(Nc2ccccc2)N1Cc1cccs1 | 9.94
Cc1onc(-c2ccccc2)c1-c1csc(N/N=C/c2ccccc2Cl)n1 | 24.9
CC1Cc2nc(SCC(=O)Nc3nccs3)n(C)c(=O)c2S1 (stereo not shown) | 1.9
O=C(Nc1cc(Cl)ccc1Cl)C1CCCO1 (stereo not shown) | 6.21
COC(=O)c1ccc(N2NC(=O)/C(=C/c3cc(OC)c(O)c(OC)c3)C2=O)cc1 | 16.7
